# From the supplement of paper PMC8728848
# This is one part of the list.
# B1: CLEC-1 (Homo sapiens), Q9NZH3 (protein)
# chain: MQAKYSSTRDMLDDDGDTTMSLHSQASATTRHPEPRRTEHRAPSSTWRPVALTLLTLCLVLLIGLAAWGLLFFQYYQLSNTGQDTISQMEERLGNTSQELQSLQVQNIKLAGSLQHVAEKLCRELYNKAGAHRCSPCTEQWKWHGDNCYQFYKDSKSWEDCKYFCLSENSTMLKINKQEDLEFAASQSYSEFFYSYWTGLLRPDSGKAWLWMDGTPFTSELFHIIIDVTSPRSRDCVAILNGMIFSKDCKELKRCVCERRAGMVKPESLHVPPETLGEGD
# How the values were obtained:
# Experiment in all cases: glycan array binding signal (z-score within array); higher = stronger binding
# Settings in all cases: glycan notation: IUPAC condensed, linker removed
# [1] = target: Neu5Ac(a2-3)Gal(b1-4)GlcNAc(b1-6)[Gal(b1-3)]GalNAc
# Procedure, shortened: (§1)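 Glycan array data were curated from 3228 arrays in the Consortium for Functional Glycomics database and kept only where the protein sequence was available. Glycan names were converted to IUPAC-condensed notation, and columns mapping to the same glycan were averaged. The binding signal is a within-array Z-score, averaged across arrays of the same protein sequence at different concentrations or buffers and across linkers. Negative Z-scores can be read as non-binding.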
# [2] = target: Neu5Ac(a2-3)Gal(b1-4)GlcNAc(b1-6)[Neu5Ac(a2-3)Gal(b1-3)]GalNAc
# Procedure, shortened: as §1
# [3] = target: Neu5Ac(a2-3)Gal(b1-4)GlcNAc6S
# Procedure, shortened: as §1
# [4] = target: Neu5Ac(a2-3)Gal(b1-4)[Fuc(a1-3)]GlcNAc
# Procedure, shortened: as §1
# [5] = target: Neu5Ac(a2-3)Gal(b1-4)[Fuc(a1-3)]GlcNAc(b1-3)Gal
# Procedure, shortened: as §1
# [6] = target: Neu5Ac(a2-3)Gal(b1-4)[Fuc(a1-3)]GlcNAc(b1-3)Gal(b1-4)GlcNAc
# Procedure, shortened: as §1
# [7] = target: Neu5Ac(a2-3)Gal(b1-4)[Fuc(a1-3)]GlcNAc(b1-3)Gal(b1-4)[Fuc(a1-3)]GlcNAc(b1-3)Gal(b1-4)[Fuc(a1-3)]GlcNAc
# Procedure, shortened: as §1
# [8] = target: Neu5Ac(a2-3)Gal(b1-4)[Fuc(a1-3)]GlcNAc(b1-3)GalNAc
# Procedure, shortened: as §1
# [9] = target: Neu5Ac(a2-3)Gal(b1-4)[Fuc(a1-3)]GlcNAc(b1-6)[Gal(b1-3)]GalNAc
# Procedure, shortened: as §1
# [10] = target: Neu5Ac(a2-3)Gal(b1-4)[Fuc(a1-3)]GlcNAc(b1-6)[Neu5Ac(a2-3)Gal(b1-3)]GalNAc
# Procedure, shortened: as §1
# [11] = target: Neu5Ac(a2-3)Gal(b1-4)[Fuc(a1-3)]GlcNAc6S
# Procedure, shortened: as §1
# [12] = target: Neu5Ac(a2-3)Gal6S(b1-4)GlcNAc
# Procedure, shortened: as §1
# [13] = target: Neu5Ac(a2-3)Gal6S(b1-4)[Fuc(a1-3)]GlcNAc
# Procedure, shortened: as §1
# Neu5Ac(a2-3)GalNAc = target: Neu5Ac(a2-3)GalNAc
# Procedure, shortened: as §1
# [14] = target: Neu5Ac(a2-3)GalNAc(b1-4)GlcNAc
# Procedure, shortened: as §1
# [15] = target: Neu5Ac(a2-3)[GalNAc(b1-4)]Gal(b1-4)Glc
# Procedure, shortened: as §1
# [16] = target: Neu5Ac(a2-3)[GalNAc(b1-4)]Gal(b1-4)GlcNAc
# Procedure, shortened: as §1
# [17] = target: Neu5Ac(a2-3)[GalNAc(b1-4)]Gal(b1-4)GlcNAc(b1-3)GalNAc
# Procedure, shortened: as §1
# [18] = target: Neu5Ac(a2-3)[Neu5Ac(a2-6)]GalNAc
# Procedure, shortened: as §1
# Neu5Ac(a2-6)Gal = target: Neu5Ac(a2-6)Gal
# Procedure, shortened: as §1
# Neu5Ac(a2-6)Gal(b1-4)Glc = target: Neu5Ac(a2-6)Gal(b1-4)Glc
# Procedure, shortened: as §1
# [19] = target: Neu5Ac(a2-6)Gal(b1-4)GlcNAc
# Procedure, shortened: as §1
# [20] = target: Neu5Ac(a2-6)Gal(b1-4)GlcNAc(b1-2)Man(a1-3)Man(b1-4)GlcNAc(b1-4)GlcNAc
# Procedure, shortened: as §1
# [21] = target: Neu5Ac(a2-6)Gal(b1-4)GlcNAc(b1-2)Man(a1-3)[Gal(b1-4)GlcNAc(b1-2)Man(a1-6)]Man(b1-4)GlcNAc(b1-4)GlcNAc
# Procedure, shortened: as §1
# [22] = target: Neu5Ac(a2-6)Gal(b1-4)GlcNAc(b1-2)Man(a1-3)[GlcNAc(b1-2)Man(a1-6)]Man(b1-4)GlcNAc(b1-4)GlcNAc
# Procedure, shortened: as §1
# [23] = target: Neu5Ac(a2-6)Gal(b1-4)GlcNAc(b1-2)Man(a1-3)[GlcNAc(b1-2)Man(b1-4)GlcNAc(b1-2)Man(a1-6)]Man(b1-4)GlcNAc(b1-4)GlcNAc
# Procedure, shortened: as §1
# [24] = target: Neu5Ac(a2-6)Gal(b1-4)GlcNAc(b1-2)Man(a1-3)[Man(a1-6)]Man(b1-4)GlcNAc(b1-4)GlcNAc
# Procedure, shortened: as §1
# [25] = target: Neu5Ac(a2-6)Gal(b1-4)GlcNAc(b1-2)Man(a1-3)[Neu5Ac(a2-6)Gal(b1-4)GlcNAc(b1-2)Man(a1-6)]Man(b1-4)GlcNAc(b1-4)GlcNAc
# Procedure, shortened: as §1
# [26] = target: Neu5Ac(a2-6)Gal(b1-4)GlcNAc(b1-2)Man(a1-6)Man(b1-4)GlcNAc(b1-4)GlcNAc
# Procedure, shortened: as §1
# [27] = target: Neu5Ac(a2-6)Gal(b1-4)GlcNAc(b1-2)Man(a1-6)[Gal(b1-4)GlcNAc(b1-2)Man(a1-3)]Man(b1-4)GlcNAc(b1-4)GlcNAc
# Procedure, shortened: as §1
# [28] = target: Neu5Ac(a2-6)Gal(b1-4)GlcNAc(b1-2)Man(a1-6)[GlcNAc(b1-2)Man(a1-3)]Man(b1-4)GlcNAc(b1-4)GlcNAc
# Procedure, shortened: as §1
# [29] = target: Neu5Ac(a2-6)Gal(b1-4)GlcNAc(b1-2)Man(a1-6)[Man(a1-3)]Man(b1-4)GlcNAc(b1-4)GlcNAc
# Procedure, shortened: as §1
# [30] = target: Neu5Ac(a2-6)Gal(b1-4)GlcNAc(b1-3)Gal(b1-3)GlcNAc
# Procedure, shortened: as §1
# [31] = target: Neu5Ac(a2-6)Gal(b1-4)GlcNAc(b1-3)Gal(b1-4)GlcNAc
# Procedure, shortened: as §1
# [32] = target: Neu5Ac(a2-6)Gal(b1-4)GlcNAc(b1-3)Gal(b1-4)GlcNAc(b1-3)Gal(b1-4)GlcNAc
# Procedure, shortened: as §1
# [33] = target: Neu5Ac(a2-6)Gal(b1-4)GlcNAc(b1-3)Gal(b1-4)[Fuc(a1-3)]GlcNAc(b1-3)Gal(b1-4)[Fuc(a1-3)]GlcNAc
# Procedure, shortened: as §1
# [34] = target: Neu5Ac(a2-6)Gal(b1-4)GlcNAc(b1-3)GalNAc
# Procedure, shortened: as §1
# [35] = target: Neu5Ac(a2-6)Gal(b1-4)GlcNAc6S
# Procedure, shortened: as §1
binder,measurement,setting,value
B1,glycan array binding signal (z-score),[1],-0.136
same,glycan array binding signal (z-score),[2],-0.142
same,glycan array binding signal (z-score),[3],-0.276
same,glycan array binding signal (z-score),[4],-0.145
same,glycan array binding signal (z-score),[5],-0.28
same,glycan array binding signal (z-score),[6],-0.048
same,glycan array binding signal (z-score),[7],-0.397
same,glycan array binding signal (z-score),[8],2.82
same,glycan array binding signal (z-score),[9],0.591
same,glycan array binding signal (z-score),[10],-0.268
same,glycan array binding signal (z-score),[11],-0.409
same,glycan array binding signal (z-score),[12],-0.086
same,glycan array binding signal (z-score),[13],-0.34
same,glycan array binding signal (z-score),Neu5Ac(a2-3)GalNAc,-0.178
same,glycan array binding signal (z-score),[14],-0.187
same,glycan array binding signal (z-score),[15],0.478
same,glycan array binding signal (z-score),[16],0.582
same,glycan array binding signal (z-score),[17],0.358
same,glycan array binding signal (z-score),[18],-0.331
same,glycan array binding signal (z-score),Neu5Ac(a2-6)Gal,-0.089
same,glycan array binding signal (z-score),Neu5Ac(a2-6)Gal(b1-4)Glc,-0.117
same,glycan array binding signal (z-score),[19],0.663
same,glycan array binding signal (z-score),[20],0.029
same,glycan array binding signal (z-score),[21],0.082
same,glycan array binding signal (z-score),[22],-0.072
same,glycan array binding signal (z-score),[23],-0.292
same,glycan array binding signal (z-score),[24],-0.19
same,glycan array binding signal (z-score),[25],-0.067
same,glycan array binding signal (z-score),[26],0.031
same,glycan array binding signal (z-score),[27],-0.53
same,glycan array binding signal (z-score),[28],-0.401
same,glycan array binding signal (z-score),[29],-0.15
same,glycan array binding signal (z-score),[30],-0.31
same,glycan array binding signal (z-score),[31],-0.468
same,glycan array binding signal (z-score),[32],-0.43
same,glycan array binding signal (z-score),[33],0.011
same,glycan array binding signal (z-score),[34],-0.394
same,glycan array binding signal (z-score),[35],-0.437
